Source: PubChem BioAssay AID493208 (National Center for Advancing Translational Sciences (NCATS), 2011)
About 340 (0.77%) of roughly 44,000 compounds were called active. About 5% were inconclusive and are not listed. Calls come from the whole dose curve; as a rule, active = well fitted inhibition curve with a large enough effect; inconclusive = small, poorly fitted or top-dose-only effect; inactive = flat fitted curve, though single readings scatter. The list shows a part of the results.

assay: Acumen qHTS Assay for Inhibitors of the mTORC1 Signaling Pathway in MEF (Tsc2-/-, p53-/-) Cells: Sytravon; details: phospho-rpS6 immunofluorescence/PI, 24 h; series mostly up to 38.3 µM; activity change, negative = inhibition: at the top concentration;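 note: plate controls were DMSO for no effect and rapamycin for full effect; nearly all actives have a fitted effect of over 50% in size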
In short: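 Compounds act on Tsc2-/-, p53-/- fibroblasts carrying an empty vector for 24 h before fixation and dual staining for phospho-S6 and DNA (propidium iodide). Values are percentages of cells above a rapamycin-defined pS6/PI threshold.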

SMILES | activity change, negative = inhibition
CCC1CN(C(=O)Nc2cc(Cl)c(OC)cc2OC)c2ccccc2O1 (configuration not stated) | inactive: 6.81%
Cc1cc(Cl)ccc1NC(=O)CCCn1nc(C)c2c(C)n(-c3ccccc3)nc2c1=O | inactive: -0.589%
COc1ccc(-c2noc(CC(=O)Nc3ccc(C)c(F)c3)n2)cc1 | inactive: -0.343%
COc1cc(C2Nc3ccccc3-c3nnc(SCc4ccc(C)cc4)nc3O2)cc(OC)c1O (configuration not stated) | inactive: 5.93%
CSc1ccc(CCNC(=O)c2cc3cc4cc(C)ccc4nc3s2)cc1 | inactive: -14.1%
Cc1ccc(Cn2c(=O)c3cccnc3n(CC(=O)Nc3cc(Cl)ccc3C)c2=O)cc1 | inactive: -1.22%
Cc1c(Cl)cccc1NC(=O)Cn1c(=O)n(Cc2nc(-c3ccccc3)no2)c(=O)c2cc3c(cc21)OCO3 | inactive: -0.109%
CCc1nn(CC(=O)NCCCc2ccccc2)c(=O)c2cc3ccccc3n12 | inactive: -3.87%
Cc1c(Cl)cccc1NC(=O)C1CCN(c2nc3ccccc3[nH]2)CC1 | inactive: 1.99%
Cc1ccc(Nc2cc(C)c(C#N)c3nc4ccccc4n23)c(C)c1 | inactive: -11.6%
COC(=O)c1sccc1S(=O)(=O)N(CC(=O)Nc1ccccc1)c1ccccc1 | inactive: 0.904%
Cc1cccc(N2CCN(Cc3cc(=O)oc4cc(C)ccc34)CC2C)c1 (configuration not stated) | inactive: -4.67%
Cc1ccccc1N1CC(c2nnc(NC(=O)c3ccco3)s2)CC1=O (configuration not stated) | inactive: -3.83%
CC(C)(C)C1CCc2onc(C(=O)Nc3sc4c(c3C#N)CCCC4)c2C1 (configuration not stated) | inactive: 2.12%
Cc1cccc(NC(=O)N2CCC(N3CCN(Cc4ccccc4)C(=O)C3=O)CC2)c1C | inactive: -1.6%
CCOc1ccc(OCC(=O)NCCS(=O)(=O)N2CCN(c3cccc(Cl)c3)CC2)cc1 | inactive: -3.01%
O=C(c1cc(-c2ccc(F)cc2)on1)N1CCN(c2ccc(F)cc2)CC1 | inactive: 0.206%
Cn1nc(C(=O)N2CCN(c3ccccc3F)CC2)c2c1-c1ccccc1S(=O)(=O)C2 | inactive: 9.17%
O=C(CN1C(=O)c2cccc3cccc1c23)Nc1ccccc1Br | inactive: -5.38%
CCCCNS(=O)(=O)c1ccc2nc(-c3cccnc3)cc(C(=O)NC(C)C)c2c1 | inactive: -13.9%
CCCC1N=C2c3ccccc3N=C(SCC(=O)NCCc3ccc(Cl)cc3)N2C1=O (configuration not stated) | inactive: 0%
CCCOC(=O)CSc1nnc(-c2ccccc2)o1 | inactive: 0.848%
CCOC(=O)c1ccccc1NC(=O)c1cc2ccc3cccnc3c2[nH]1 | inactive: 4.89%
Cc1oc2ncnc(N3CCOCC3)c2c1C(=O)NCCc1ccccc1 | inactive: -5.07%
CCn1c(C(=O)Nc2ccc(C)cc2C)cc2sc(Cl)cc21 | inactive: -4.13%

SMILES | activity change, negative = inhibition
CCOC(=O)COc1ccc(C)cc1C(=O)c1ccn2nc(-c3ccc(Cl)cc3)cc2n1 | inactive: 2.29%
CC(C)NC(=O)c1ccc2c(c1)nc1n2CCCCC1 | inactive: -7.09%
Cc1ccc(NS(=O)(=O)c2ccc3nc(-c4ccccc4)[nH]c3c2)c(Br)c1 | inactive: -20.2%
Cc1sc2ncn(CC(=O)N(C)c3ccc(C(C)C)cc3)c(=O)c2c1S(=O)(=O)N1CCC(C)CC1 | inactive: -18.1%
COc1ccc(-c2noc(CC(=O)Nc3cc(OC)ccc3OC)n2)cc1 | inactive: -5.15%
Cc1ccc(Nc2nc3ccc(C(=O)c4ccccc4)cc3n3c(C)nnc23)c(C)c1 | inactive: -4.48%
CC1CCC(NC(=O)C2(C)Cc3ccccc3C(=O)N2Cc2ccc(Cl)cc2)CC1 (configuration not stated) | inactive: 1.63%
CCCn1c(=O)c2sccc2n2c(CCCC(=O)N3CCN(c4cccc(Cl)c4)CC3)nnc12 | inactive: 1.8%
CC(=O)c1cccc(NC(=O)CN2C(=O)CC(c3ccc(C)cc3C)=Nc3ccccc32)c1 | inactive: 8.86%
O=C(/C=C/c1ccc(Cl)cc1)N1CCC(c2nc3ccccc3o2)CC1 | inactive: -6.26%
CCCCN(CC)CCCNC(=O)c1cn(CC)c2ccc(S(=O)(=O)N3CCc4ccccc4C3)cc2c1=O | inactive: -1.87%
CCc1cc2c(cc3c(=O)n(CC(=O)N4CCN(c5cccc(C)c5C)CC4)nc(CC)n32)s1 | inactive: -3.55%
COc1ccc(CCNCc2c(C(=O)O)c(C)n(Cc3cccc(Cl)c3)c2C)c(OC)c1OC | inactive: -9.05%
CCc1ccccc1NC(=O)CCC(=O)N1CC(C)Oc2ccc(C)cc21 (configuration not stated) | inactive: 5.92%
COc1ccc(CCNC(=O)c2cc3c(=O)n(C)c4ccccc4c3s2)cc1OC | inactive: -0.0431%
O=C(Cn1cc(C(=O)c2ccccc2)c(=O)c2cc3c(cc21)OCCO3)Nc1ccc(F)c(F)c1 | inactive: 0.49%
Cc1ccc(C)c(N2CCN(S(=O)(=O)c3ccc(C(=O)N(C)C)s3)CC2)c1 | inactive: 6.86%
O=C(Cn1cc(S(=O)(=O)Cc2ccccc2Cl)c2ccccc21)NCCc1ccccc1 | inactive: -4.56%
CCOc1ccccc1CNS(=O)(=O)c1cc2c(cc1C)NC(=O)CO2 | inactive: 0%
Cc1ccccc1CNC(=O)CCC(=O)N1CCSc2ccccc21 | inactive: 4.97%
COc1ccc(NC(=O)c2c(NC(=O)COc3ccccc3)sc3c2CCCCC3)cc1 | inactive: -7.39%
COc1ccc(NC(=O)CCNS(=O)(=O)c2ccc3c(c2)CCCC(=O)N3)cc1 | inactive: 1.97%
Cc1ccc(-c2cc3ncc4c(n3n2)-c2cc(Cl)ccc2OC4)cc1 | inactive: -2.7%
O=C(NCc1ccc(F)cc1)C(=O)Nc1ccc2nc3n(c(=O)c2c1)CCCCC3 | inactive: -3.23%
CCn1nnc2cc(C(=O)Nc3cc(C)ccc3C)ccc21 | inactive: 0%

SMILES | activity change, negative = inhibition
COc1ccc(NC(=O)CC2C(=O)N(c3cccc(OC)c3)C(=O)N2CCC2=CCCCC2)cc1 (configuration not stated) | inactive: -15.5%
CCOc1ccc(CC(=O)NCc2ccc3c(c2)CCN3C(=O)c2ccccc2)cc1OCC | inactive: -19.9%
Cc1cccc(CN2CCN(CC(=O)NCCc3ccc(Cl)cc3)C2=O)c1 | inactive: -2.74%
Cc1cc(C)c(NC(=O)c2oc3c(c2C)-c2[nH]ncc2CC3)c(C)c1 | inactive: 0.34%
Fc1ccccc1N1CCN(c2ncnc3onc(-c4ccc(Cl)cc4)c23)CC1 | inactive: -2.36%
CCOC(=O)c1ccccc1NC(=O)CN1C(=O)CC(c2ccccc2)Sc2ccccc21 (configuration not stated) | inactive: -0.565%
COc1ccc(Cl)cc1NC(=O)CSc1nc2c(oc3ccccc32)c(=O)n1Cc1ccco1 | inactive: 2.87%
Cc1cccc(-c2nc3scc(CCNS(=O)(=O)c4ccc(F)c(C(F)(F)F)c4)n3n2)c1 | inactive: 0.215%
Cc1ccc(C(=O)Nc2ccc(C(=O)O)cc2)cc1S(=O)(=O)N1CCC(C)CC1 | inactive: 4.26%
CCCCOc1ccc(C(=O)NCc2cn3cccc(C)c3n2)cc1 | inactive: -5.66%
CCCCOc1ccc(C(=O)NCCc2sc3nc(-c4ccc(OC)cc4)nn3c2C)cc1 | inactive: 1.29%
CCOc1cc2c(cc1OCC)C(CC(=O)O)N(C(=O)Nc1ccc(Br)c(C)c1)CC2 (configuration not stated) | inactive: 0%
O=C(Nc1ccc(N2CCN(c3ccc(F)cc3)CC2)c(C(=O)O)c1)c1cccs1 | inactive: -2.51%
Cc1ccc(NC(=O)/C=C/c2ccco2)cc1F | inactive: -11.7%
CCOc1ccc(N(C)C(=O)C2CCN(S(=O)(=O)c3c(C)noc3/C=C/c3ccc(C)cc3)CC2)cc1 | inactive: 3.12%
CCN(CC)c1nn2c(=O)c(C(=O)NCCc3ccccc3C)cnc2s1 | inactive: -12.3%
COc1ccc(NC(=O)c2ccco2)cc1NC(=O)c1ccc(C#N)cc1F | inactive: 5.46%
Cc1c(C(=O)Nc2ccc(F)c(Cl)c2)sc2nc3n(c(=O)c12)CCC3 | inactive: 0.836%
CCCCCSc1nnc2c(n1)[nH]c1c(C)cccc12 | inactive: -5.03%
COCCn1c(SCC(=O)c2ccc(C)cc2)nc2cc(C(=O)NC3CCCC3)ccc2c1=O | inactive: 7.49%
COc1ccccc1N1CCN(c2ncnc3c2cnn3-c2ccc(C)cc2)CC1 | inactive: 12.8%
FC(F)(F)c1cc(Nc2nc3ccccc3c3nncn23)ccc1Cl | inactive: -16.4%
O=C(NCCc1ccccc1)C1CCN(c2nc3ccccc3nc2C(F)(F)F)CC1 | inactive: -2.88%
CCCNC(=O)c1cnn(-c2ccc(C)c(C)c2)c1C1CCN(C(=O)OC(C)(C)C)CC1 | inactive: -9.17%
CCCOc1ccc(C(=O)N2CCC(c3nc4ccccc4s3)CC2)cc1 | inactive: -0.506%

SMILES | activity change, negative = inhibition
CCc1ccc(/C=C(/C#N)c2nc(-c3ccc(C)cc3)cs2)cc1 | inactive: 8.23%
O=S(=O)(NCC(c1ccco1)N1CCN(c2ccccc2)CC1)c1cc(F)ccc1F (configuration not stated) | inactive: 2.72%
Cc1cc(C)cc(N2CCn3c2nc2c3c(=O)n(Cc3c(F)cccc3Cl)c(=O)n2C)c1 | inactive: 8.62%
O=C(Cn1c(=O)c(CNc2ccccc2)cc2cc3c(cc21)OCCO3)Nc1ccccc1Cl | inactive: -0.361%
CCc1ccc2oc(-c3ccc(C)c(NC(=O)Cc4ccccc4)c3)nc2c1 | inactive: 1.45%
CC(C)(C)OC(=O)N1CCC(c2c(C(=O)NCCN3CCOCC3)cnn2-c2cccc(Cl)c2)CC1 | inactive: 5.49%
Cn1c(=O)c2c(nc(CN3CCN(c4ccccc4F)CC3)n2Cc2ccc(F)cc2)n(C)c1=O | inactive: 3.57%
O=c1c(S(=O)(=O)c2ccccc2)cn(Cc2ccccc2)c2cc(N3CCCC3)c(F)cc12 | inactive: 0%
Cc1nn(C)c2c1c(C(F)(F)F)cc(=O)n2Cc1ccc(Br)cc1F | inactive: -6.9%
Cc1cccc(NC(=O)CSc2nc3n[nH]c(C)c3c(=N)n2-c2cccc(Cl)c2)c1 | inactive: -14.3%
Cc1cc(C)cc(C(=O)NCCc2sc(-c3ccc(F)cc3)nc2C)c1 | inactive: 3%
CCOC(=O)C1CCN(CCC(=O)Nc2ccccc2OC)CC1 | inactive: 6.95%
N#Cc1ccc(NC(=O)COCc2cc(-c3ccco3)on2)cc1 | inactive: 2.58%
COc1ccc(OC)c(C2CC(=O)Nc3c2c(=O)[nH]c2nc4ccccc4n32)c1 (configuration not stated) | inactive: 1.63%
COc1ccc(-c2c(C)c3cc(OC(=O)N4CCOCC4)ccc3oc2=O)cc1OC | inactive: 3.7%
CC(CNC(=O)c1ccc(Cn2c(=O)c3cccn3c3cccnc32)cc1)c1ccccc1 (configuration not stated) | inactive: -7.76%
NC(=O)Cn1c(=O)n(CCCCCC(=O)NCc2ccc3c(c2)OCO3)c(=O)c2sccc21 | inactive: 6.48%
CCc1cccc(NC(=O)Cn2c(=O)n3nc(-c4cccc(F)c4)nc3c3ccccc32)c1 | inactive: 1.54%
COc1cccc(Cn2nnc(C(=O)NCc3ccc(Cl)cc3Cl)c2N)c1 | inactive: 0%
CCOc1cc2[nH]c(=O)n(CCCCC(=O)N3CCN(c4ccccc4OC)CC3)c(=O)c2cc1OCC | inactive: 0.686%
COc1ccc(NC(=O)c2nnn(CC(=O)Nc3ccc(C)c(C)c3)c2N)cc1OC | inactive: -18.4%
Cc1ccccc1C(=O)Nc1sc2c(c1C(=O)N1CCC(C)CC1)CCC(C)C2 (configuration not stated) | inactive: 0.0859%
